According to the supplement of paper PMC3334620:
Over roughly 33,000 sequences, “E-score (-0.5 to 0.5)” has its median near -0.016; the highest 2% begin near 0.32. Some of the results follow.

Each sequence was assayed against T1, Stp1 (UniProt B3LFK1) (assay: PBM E-score (8-mer binding enrichment) (E-score (-0.5 to 0.5)); higher = stronger / more preferred TF binding; most listed sequences are background and not binding sites). Settings: protein concentration: 200 nM; construct: GST-full length.
T1 sequence: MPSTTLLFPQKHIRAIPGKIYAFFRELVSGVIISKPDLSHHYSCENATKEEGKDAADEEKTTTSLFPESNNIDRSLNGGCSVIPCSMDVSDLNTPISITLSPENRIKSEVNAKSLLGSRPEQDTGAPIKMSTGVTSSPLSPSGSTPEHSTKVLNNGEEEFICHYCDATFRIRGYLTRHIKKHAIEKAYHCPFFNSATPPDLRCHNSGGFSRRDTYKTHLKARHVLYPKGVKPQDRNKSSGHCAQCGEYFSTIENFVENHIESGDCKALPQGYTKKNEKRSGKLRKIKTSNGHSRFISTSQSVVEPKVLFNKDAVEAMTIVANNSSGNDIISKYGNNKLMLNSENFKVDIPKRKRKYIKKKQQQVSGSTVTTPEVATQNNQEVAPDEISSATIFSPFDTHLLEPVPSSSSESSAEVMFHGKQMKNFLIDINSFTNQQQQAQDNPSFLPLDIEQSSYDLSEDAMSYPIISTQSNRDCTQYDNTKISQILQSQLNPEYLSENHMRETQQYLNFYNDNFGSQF
Outline: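 Yeast transcription factors, full-length or as DNA-binding domains, were expressed with a GST tag using PURExpress in vitro transcription/translation. At about 100-200 nM they were applied to universal all-10-mer Agilent arrays, double-stranded by primer extension on fresh or once-stripped slides. Fluorescent anti-GST detected bound protein, and masliner normalised the scans. E-scores for ungapped eight-base words, pooled with reverse complements, came from the Universal PBM Analysis Suite.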

Sequence | PBM E-score
ATGTCAGA | -0.0262
AAATGATT | 0.126
AGATATCC | 0.0286
CAATAAAG | 0.217
ACGCGCAT | -0.012
CCCCTGGA | -0.375
GCGAATCA | 0.0939
ATGAGTGG | -0.0445
CCAAGGCC | 0.171
GCTTAGAC | -0.11
TAAGAGCA | -0.0159
ATGCTGTG | 0.0433
ATAACGTA | 0.121
ATGTTTGA | -0.0902
TCCTGGCA | -0.0312
CATGTATA | -0.0651
CGCCGGGA | -0.251
GCGCTCCC | -0.106
CACGAACA | 0.121
ATACTCGG | -0.0581
AAGAATAC | 0.133
AGTTGAAC | -0.106
AGTGTTTC | -0.00032
TGCTCACA | 0.0472
AGATAGCT | -0.175

Sequence | PBM E-score
CGGAGTAG | -0.18
CCGAGGAG | -0.0986
ACGAGGCG | 0.457
GACAATTA | 0.165
CTGGCTAA | -0.0944
CAATGGTA | -0.0291
ACAATCAC | -0.0628
AGGGAGCC | -0.183
GAAGAATA | -0.0673
GCCACACA | 0.132
CACGCACA | 0.0561
AGTGTAAC | 0.0739
CGGGGACG | -0.219
ACGAACAA | 0.264
AATTAGGG | -0.211
ACTGTGTC | 0.0125
AAGGCCCC | -0.021
ACTTACGC | -0.0615
CGCCCCCG | -0.213
TGGATGAA | -0.0342
GACTCTGA | -0.139
GTCGGGGA | -0.152
ATTCGAAC | 0.0643
GCGCACGC | -0.0354
GCAGGCGC | 0.148

Sequence | PBM E-score
CCCGCTGC | -0.0787
CGCGCTGC | 0.122
CTGGAACA | -0.0791
GTCCCGCA | -0.0837
GCGCTGCA | 0.232
CAGATAAG | -0.104
GTCTTATA | 0.0311
ACAGGGCA | 0.244
CACCTGTC | -0.0834
AGCACTCC | -0.138
GGTATTCA | 0.126
ACGCGAAA | 0.0194
CTCGATCA | -0.0874
CTGAACAG | -0.00706
GACTCACA | -0.207
AGTTGATA | 0.105
AGTCACTC | -0.138
CCCCACCA | -0.126
ATGGGATC | -0.108
GCACTGCA | 0.00383
GACGCTAA | -0.124
CTGACGAA | 0.251
AGAGTCGA | -0.295
AAACTTAC | -0.0757
AAAACTGT | 0.0272

Sequence | PBM E-score
CGTTATGA | 0.0701
AGCTAAAC | -0.188
CGTCCTCC | -0.239
ATCTAGTC | 0.0586
GCCGGCTA | 0.0397
CGGTCACG | -0.171
AGCAAACC | -0.0816
ACGGTCCC | -0.136
ATGGGTCC | -0.21
AGCAGCTC | -0.191
AGGGCTAC | -0.209
AGCGGGAG | -0.327
GGGTCACC | -0.36
ATATCCCC | -0.136
CAGATCGC | 0.036
CGCTCATC | 0.0903
GCGGAAGA | -0.0192
GCACGCTA | 0.0804
CTTGGTCA | -0.112
GAAAAGCC | 0.0718
ATCATACA | 0.131
GAACAAGC | -0.117
ATCATTAG | 0.0912
ACCTGGTA | -0.29
ACAGCTAA | -0.0921

Sequence | PBM E-score
ATTAGGTG | -0.02
GGATTTCA | -0.0545
ATTTTAGC | 0.0251
AGGTCAGG | -0.28
ATCTGGAC | -0.214
TGTTTAAA | 0.0295
GCGGCCCC | 0.176
TATGGGCA | 0.078
CGCGTGTC | 0.184
GTCCACTA | -0.19
AGTAAAAG | 0.0502
AAAGAGTG | -0.233
CACTGCGC | 0.124
CGAAAGTC | -0.109
GTCAAGTA | -0.116
AGGAGAGA | -0.136
CAAAAGTG | 0.0114
CGCTGTCC | 0.0724
GAGACTCC | -0.255
GGTGGTAA | -0.0854
ATCATGCC | 0.0455
TGGAAGAA | -0.00986
ACTCTACC | -0.13
AGTCGGTA | -0.248
ATTGCGAA | 0.0475

Sequence | PBM E-score
AACCCAGG | -0.23
GGCATGTA | 0.136
TATGGTAA | 0.0997
GTACAAAC | 0.121
GCGTGGAA | -0.0738
TCCCATCA | -0.201
AAAGCGTC | -0.0677
ACCATGTG | -0.0149
ATAATTAG | 0.207
AAAGTACT | -0.0073
CCCACAGC | -0.0512
AGCCCGGC | -0.0378
GTGAGTCA | -0.151
ATTAGTGA | 0.1
CATAACCA | -0.0918
AGCATTGG | -0.0346
AGCCTCGC | 0.0691
AACGAGTC | -0.0955
CATCCACC | -0.0391
GTAAGAAA | 0.0223
CCAGACCG | -0.132
ACATGATG | -0.0676
AATTACGG | 0.126
ATAGAATC | 0.19
TCTCTGAA | -0.156

Sequence | PBM E-score
AGTATCCC | -0.11
AACATTGT | 0.027
GCTCTACC | -0.266
AAAAAGAA | 0.194
AACTCGGT | -0.107
AATGAAAT | 0.22
AGCTCAAC | -0.0401
AGTGACTG | -0.249
GCTCCACC | -0.229
ACCCCTCG | -0.281
ATCGCCGG | 0.192
ACCGTCGG | -0.194
AACCCATA | -0.0253
GTTTTTAA | 0.123
AAAATCTA | 0.143
CTATGAGA | -0.132
AAACTCTA | -0.0936
CAGGTTAA | -0.207
CAGTTATC | 0.0278
AGTGCTGC | 0.11
GATGCTAC | -0.0867
CCCGTGCC | 0.33
